The list shows a part of the results.
Columns and labels:
Assay in all cases: glycan array binding signal (z-score within array); higher = stronger binding
Conditions in all cases: glycan notation: IUPAC condensed, linker removed
[1] = molecular target: Neu5Ac(a2-3)Gal(b1-3)GalNAc
Method in brief: (§1)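 The Consortium for Functional Glycomics database supplied 3228 glycan arrays, of which those lacking an available protein sequence were dropped. The binding signal, a within-array Z-score, was averaged across arrays of the same protein sequence and across linkers. Negative scores can be read as non-binding.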

[2] = molecular target: Neu5Ac(a2-3)Gal(b1-3)GalNAc(b1-3)Gal(a1-4)Gal(b1-4)Glc
Method in brief: as §1

[3] = molecular target: Neu5Ac(a2-3)Gal(b1-3)GalNAc(b1-4)[Neu5Ac(a2-3)]Gal(b1-4)Glc
Method in brief: as §1

[4] = molecular target: Neu5Ac(a2-3)Gal(b1-3)GalNAc(b1-4)[Neu5Ac(a2-8)Neu5Ac(a2-3)]Gal(b1-4)Glc
Method in brief: as §1

[5] = molecular target: Neu5Ac(a2-3)Gal(b1-3)GalNAc6S
Method in brief: as §1

[6] = molecular target: Neu5Ac(a2-3)Gal(b1-3)GlcNAc
Method in brief: as §1

[7] = molecular target: Neu5Ac(a2-3)Gal(b1-3)GlcNAc(b1-2)Man
Method in brief: as §1

[8] = molecular target: Neu5Ac(a2-3)Gal(b1-3)GlcNAc(b1-2)Man(a1-3)[GlcNAc(b1-4)][Neu5Ac(a2-3)Gal(b1-3)GlcNAc(b1-2)Man(a1-6)]Man(b1-4)GlcNAc(b1-4)GlcNAc
Method in brief: as §1

[9] = molecular target: Neu5Ac(a2-3)Gal(b1-3)GlcNAc(b1-2)Man(a1-3)[Neu5Ac(a2-3)Gal(b1-3)GlcNAc(b1-2)Man(a1-6)]Man(b1-4)GlcNAc(b1-4)GlcNAc
Method in brief: as §1

[10] = molecular target: Neu5Ac(a2-3)Gal(b1-3)GlcNAc(b1-3)Gal(b1-3)GlcNAc
Method in brief: as §1

[11] = molecular target: Neu5Ac(a2-3)Gal(b1-3)GlcNAc(b1-3)Gal(b1-4)GlcNAc
Method in brief: as §1

[12] = molecular target: Neu5Ac(a2-3)Gal(b1-3)GlcNAc(b1-3)GalNAc
Method in brief: as §1

[13] = molecular target: Neu5Ac(a2-3)Gal(b1-3)GlcNAc(b1-4)Gal(b1-4)Glc
Method in brief: as §1

[14] = molecular target: Neu5Ac(a2-3)Gal(b1-3)GlcNAc(b1-6)GalNAc
Method in brief: as §1

[15] = molecular target: Neu5Ac(a2-3)Gal(b1-3)GlcNAc6S
Method in brief: as §1

[16] = molecular target: Neu5Ac(a2-3)Gal(b1-3)[Fuc(a1-4)]GlcNAc
Method in brief: as §1

[17] = molecular target: Neu5Ac(a2-3)Gal(b1-3)[Fuc(a1-4)]GlcNAc(b1-3)Gal(b1-3)[Fuc(a1-4)]GlcNAc
Method in brief: as §1

[18] = molecular target: Neu5Ac(a2-3)Gal(b1-3)[Fuc(a1-4)]GlcNAc(b1-3)Gal(b1-4)[Fuc(a1-3)]GlcNAc
Method in brief: as §1

[19] = molecular target: Neu5Ac(a2-3)Gal(b1-3)[GlcNAc(b1-6)]GalNAc
Method in brief: as §1

[20] = molecular target: Neu5Ac(a2-3)Gal(b1-3)[Neu5Ac(a2-6)]GalNAc
Method in brief: as §1

[21] = molecular target: Neu5Ac(a2-3)Gal(b1-3)[Neu5Ac(a2-6)]GlcNAc(b1-3)[Fuc(a1-3)[Gal(b1-4)]GlcNAc(b1-6)]Gal(b1-4)Glc
Method in brief: as §1

[22] = molecular target: Neu5Ac(a2-3)Gal(b1-3)]Neu5Ac(a2-3)Gal(b1-4)]GlcNAc
Method in brief: as §1

Neu5Ac(a2-3)Gal(b1-4)Glc = molecular target: Neu5Ac(a2-3)Gal(b1-4)Glc
Method in brief: as §1

[23] = molecular target: Neu5Ac(a2-3)Gal(b1-4)GlcNAc
Method in brief: as §1

[24] = molecular target: Neu5Ac(a2-3)Gal(b1-4)GlcNAc(b1-2)Man
Method in brief: as §1

[25] = molecular target: Neu5Ac(a2-3)Gal(b1-4)GlcNAc(b1-2)Man(a1-3)[GlcNAc(b1-4)][Neu5Ac(a2-3)Gal(b1-4)GlcNAc(b1-2)Man(a1-6)]Man(b1-4)GlcNAc(b1-4)GlcNAc
Method in brief: as §1

[26] = molecular target: Neu5Ac(a2-3)Gal(b1-4)GlcNAc(b1-2)Man(a1-3)[Neu5Ac(a2-3)Gal(b1-4)GlcNAc(b1-2)Man(a1-6)]Man(b1-4)GlcNAc(b1-4)GlcNAc
Method in brief: as §1

[27] = molecular target: Neu5Ac(a2-3)Gal(b1-4)GlcNAc(b1-2)Man(a1-3)[Neu5Ac(a2-3)Gal(b1-4)GlcNAc(b1-2)Man(a1-6)]Man(b1-4)GlcNAc(b1-4)[Fuc(a1-6)]GlcNAc
Method in brief: as §1

[28] = molecular target: Neu5Ac(a2-3)Gal(b1-4)GlcNAc(b1-2)Man(a1-3)[Neu5Ac(a2-6)Gal(b1-4)GlcNAc(b1-2)Man(a1-6)]Man(b1-4)GlcNAc(b1-4)GlcNAc
Method in brief: as §1

[29] = molecular target: Neu5Ac(a2-3)Gal(b1-4)GlcNAc(b1-2)[Neu5Ac(a2-3)Gal(b1-4)GlcNAc(b1-4)]Man(a1-3)[GlcNAc(b1-4)][Neu5Ac(a2-3)Gal(b1-4)GlcNAc(b1-2)[Neu5Ac(a2-3)Gal(b1-4)GlcNAc(b1-6)]Man(a1-6)]Man(b1-4)GlcNAc(b1-4)GlcNAc
Method in brief: as §1

[30] = molecular target: Neu5Ac(a2-3)Gal(b1-4)GlcNAc(b1-2)[Neu5Ac(a2-3)Gal(b1-4)GlcNAc(b1-4)]Man(a1-3)[GlcNAc(b1-4)][Neu5Ac(a2-3)Gal(b1-4)GlcNAc(b1-4)Man(a1-6)]Man(b1-4)GlcNAc(b1-4)GlcNAc
Method in brief: as §1

[31] = molecular target: Neu5Ac(a2-3)Gal(b1-4)GlcNAc(b1-2)[Neu5Ac(a2-3)Gal(b1-4)GlcNAc(b1-6)]Man(a1-6)[Neu5Ac(a2-3)Gal(b1-4)GlcNAc(b1-2)Man(a1-3)]Man(b1-4)GlcNAc(b1-4)GlcNAc
Method in brief: as §1

[32] = molecular target: Neu5Ac(a2-3)Gal(b1-4)GlcNAc(b1-2)[Neu5Ac(a2-3)Gal(b1-4)GlcNAc(b1-6)]Man(a1-6)[Neu5Ac(a2-3)Gal(b1-4)GlcNAc(b1-2)Man(a1-3)][GlcNAc(b1-4)]Man(b1-4)GlcNAc(b1-4)GlcNAc
Method in brief: as §1

[33] = molecular target: Neu5Ac(a2-3)Gal(b1-4)GlcNAc(b1-3)Gal
Method in brief: as §1

[34] = molecular target: Neu5Ac(a2-3)Gal(b1-4)GlcNAc(b1-3)Gal(b1-3)GlcNAc
Method in brief: as §1

[35] = molecular target: Neu5Ac(a2-3)Gal(b1-4)GlcNAc(b1-3)Gal(b1-4)GlcNAc
Method in brief: as §1

[36] = molecular target: Neu5Ac(a2-3)Gal(b1-4)GlcNAc(b1-3)Gal(b1-4)GlcNAc(b1-2)Man(a1-3)[Neu5Ac(a2-3)Gal(b1-4)GlcNAc(b1-3)Gal(b1-4)GlcNAc(b1-2)Man(a1-6)]Man(b1-4)GlcNAc(b1-4)GlcNAc
Method in brief: as §1

B1: Cohesin-hDECTIN-1 (Homo sapiens) (protein)
chain: LDITSHHHHHHDDLDAVRIKVDTVNAKPGDTVRIPVRFSGIPSKGIANCDFVYSYDPNVLEIIEIEPGDIIVDPNPDKSFDTAVYPDRKIIVFLFAEDSGTGAYAITKDGVFATIVAKVKEGAPNGLSVIKFVEVGGFANNDLVEQKTQFFDGGVNVGDTTEPATPTTPVTTPTTTDDLDAASSSPCPPNWIIYEKSCYLFSMSLNSWDGSKRQCWQLGSNLLKIDSSNELGFIVKQVSSQPDNSFWIGLSRPQTEVPWLWEDGSTFSSNLFQIRTTATQENPSPNCVWIHVSVIYDQLCSVPSYSICEKKFM
glycan array binding signal (z-score) [1]: -0.482
glycan array binding signal (z-score) [2]: -0.037
glycan array binding signal (z-score) [3]: -0.447
glycan array binding signal (z-score) [4]: -0.355
glycan array binding signal (z-score) [5]: 0.081
glycan array binding signal (z-score) [6]: -0.404
glycan array binding signal (z-score) [7]: -0.06
glycan array binding signal (z-score) [8]: -0.441
glycan array binding signal (z-score) [9]: -0.206
glycan array binding signal (z-score) [10]: -0.252
glycan array binding signal (z-score) [11]: -0.448
glycan array binding signal (z-score) [12]: -0.224
glycan array binding signal (z-score) [13]: -0.22
glycan array binding signal (z-score) [14]: 1.9
glycan array binding signal (z-score) [15]: -0.326
glycan array binding signal (z-score) [16]: -0.24
glycan array binding signal (z-score) [17]: -0.192
glycan array binding signal (z-score) [18]: -0.589
glycan array binding signal (z-score) [19]: -0.396
glycan array binding signal (z-score) [20]: -0.14
glycan array binding signal (z-score) [21]: -0.605
glycan array binding signal (z-score) [22]: -0.231
glycan array binding signal (z-score) (Neu5Ac(a2-3)Gal(b1-4)Glc): -0.374
glycan array binding signal (z-score) [23]: -0.396
glycan array binding signal (z-score) [24]: 0.352
glycan array binding signal (z-score) [25]: -0.542
glycan array binding signal (z-score) [26]: 0.52
glycan array binding signal (z-score) [27]: -0.434
glycan array binding signal (z-score) [28]: -0.644
glycan array binding signal (z-score) [29]: 0.436
glycan array binding signal (z-score) [30]: 0.218
glycan array binding signal (z-score) [31]: -0.273
glycan array binding signal (z-score) [32]: -0.428
glycan array binding signal (z-score) [33]: -0.468
glycan array binding signal (z-score) [34]: -0.289
glycan array binding signal (z-score) [35]: -0.547
glycan array binding signal (z-score) [36]: -0.447

— the supplement of paper PMC8728848
